Test results reported in article PMC9911399, “Two distinct binding modes provide the RNA-binding protein RbFox with extraordinary sequence specificity”.
Numbering of substitutions follows the chain as printed; changes in the protein carry UniProt numbers. Some of the results follow.

T1: RBFOX1 RRM RbFoxmut (Fox-RRM*) (Homo sapiens, UniProt Q9NWB1 109-208, R118D;E147R;N151S;E152T)
T1 sequence: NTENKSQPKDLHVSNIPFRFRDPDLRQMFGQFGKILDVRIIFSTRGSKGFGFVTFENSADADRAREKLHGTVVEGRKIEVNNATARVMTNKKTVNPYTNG

B1: GUACGCC (DNA:RNA)
RNA: GGGAGACCGGAAUUCAGAUUGUCCGUACGCCUUAAAUCCCGUCGUAGCCACCA
DNA 1: CAATCTGAATTCCGGTCTCCC
DNA 2: TGGTGGCTACGACGGGATT
B2: GUCAAUA (DNA:RNA)
RNA: B1 RNA with A27C, C28A, G29A, C30U, C31A
DNA 1: CAATCTGAATTCCGGTCTCCC
DNA 2: TGGTGGCTACGACGGGATT
B3: GCAGUCU (DNA:RNA)
RNA: B1 RNA with U26C, C28G, G29U, C31U
DNA 1: CAATCTGAATTCCGGTCTCCC
DNA 2: TGGTGGCTACGACGGGATT
B4: UAAGGAA (DNA:RNA)
RNA: B1 RNA with G25U, U26A, C28G, C30A, C31A
DNA 1: CAATCTGAATTCCGGTCTCCC
DNA 2: TGGTGGCTACGACGGGATT
B5: CGCACGG (DNA:RNA)
RNA: GGGAGACCGGAAUUCAGAUUGUCCCGCACGGUUAAAUCCCGUCGUAGCCACCA
DNA 1: CAATCTGAATTCCGGTCTCCC
DNA 2: TGGTGGCTACGACGGGATT
B6: UCGUCUC (DNA:RNA)
RNA: B5 RNA with C25U, G26C, C27G, A28U, G30U, G31C
DNA 1: CAATCTGAATTCCGGTCTCCC
DNA 2: TGGTGGCTACGACGGGATT
B7: GUCGCCA (DNA:RNA)
RNA: B1 RNA with A27C, C28G, G29C, C31A
DNA 1: CAATCTGAATTCCGGTCTCCC
DNA 2: TGGTGGCTACGACGGGATT
B8: GGCUCCA (DNA:RNA)
RNA: B5 RNA with C25G, A28U, G30C, G31A
DNA 1: CAATCTGAATTCCGGTCTCCC
DNA 2: TGGTGGCTACGACGGGATT
B9: GAUUGUA (DNA:RNA)
RNA: B1 RNA with U26A, A27U, C28U, C30U, C31A
DNA 1: CAATCTGAATTCCGGTCTCCC
DNA 2: TGGTGGCTACGACGGGATT
B10: GUGGCAA (DNA:RNA)
RNA: B1 RNA with A27G, C28G, G29C, C30A, C31A
DNA 1: CAATCTGAATTCCGGTCTCCC
DNA 2: TGGTGGCTACGACGGGATT
B11: AGUCUGU (DNA:RNA)
RNA: B5 RNA with C25A, C27U, A28C, C29U, G31U
DNA 1: CAATCTGAATTCCGGTCTCCC
DNA 2: TGGTGGCTACGACGGGATT
B12: AACUAUU (DNA:RNA)
RNA: B5 RNA with C25A, G26A, A28U, C29A, G30U, G31U
DNA 1: CAATCTGAATTCCGGTCTCCC
DNA 2: TGGTGGCTACGACGGGATT
B13: CUCUCCU (DNA:RNA)
RNA: B5 RNA with G26U, A28U, G30C, G31U
DNA 1: CAATCTGAATTCCGGTCTCCC
DNA 2: TGGTGGCTACGACGGGATT
B14: GACUUAC (DNA:RNA)
RNA: B1 RNA with U26A, A27C, C28U, G29U, C30A
DNA 1: CAATCTGAATTCCGGTCTCCC
DNA 2: TGGTGGCTACGACGGGATT
B15: UCUUUUU (DNA:RNA)
RNA: GGGAGACCGGAAUUCAGAUUGUCCUCUUUUUUUAAAUCCCGUCGUAGCCACCA
DNA 1: CAATCTGAATTCCGGTCTCCC
DNA 2: TGGTGGCTACGACGGGATT
B16: GCAUCGU (DNA:RNA)
RNA: B15 RNA with U25G, U27A, U29C, U30G
DNA 1: CAATCTGAATTCCGGTCTCCC
DNA 2: TGGTGGCTACGACGGGATT
B17: AACGAAU (DNA:RNA)
RNA: B5 RNA with C25A, G26A, A28G, C29A, G30A, G31U
DNA 1: CAATCTGAATTCCGGTCTCCC
DNA 2: TGGTGGCTACGACGGGATT
B18: ACUUGGA (DNA:RNA)
RNA: B15 RNA with U25A, U29G, U30G, U31A
DNA 1: CAATCTGAATTCCGGTCTCCC
DNA 2: TGGTGGCTACGACGGGATT
B19: CACAAGC (DNA:RNA)
RNA: B5 RNA with G26A, C29A, G31C
DNA 1: CAATCTGAATTCCGGTCTCCC
DNA 2: TGGTGGCTACGACGGGATT
B20: ACAAGGU (DNA:RNA)
RNA: B5 RNA with C25A, G26C, C27A, C29G, G31U
DNA 1: CAATCTGAATTCCGGTCTCCC
DNA 2: TGGTGGCTACGACGGGATT

Target: T1, RBFOX1 RRM RbFoxmut (Fox-RRM*)
Assay: EMSA; HiTS-Eq, 1 nM pool, 10 min; buffer printed only for the single-RNA assays: 10 mM Tris pH 7.5, 150 mM NaCl, 3.4 mM EDTA, 0.001% NP-40, 30 C
Details: tags: His6 N-terminal (pET28a); label: 5' 32P
In short: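 Purified RbFox RRM, wild type or mutant, was incubated for 10 min in 50 µL with 1 nM of a 5′-radiolabelled RNA pool carrying 7 randomized nucleotides, whose flanks were annealed to DNA oligonucleotides, over a series of increasing protein concentrations. Unbound RNA was resolved on 8% native PAGE, cut out, reverse-transcribed, barcoded by PCR and sequenced on an Illumina HiSeq 2500. Relative association constants were derived from changes in read counts for each RNA species versus the control reaction and normalised to the cognate motif.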

Binder	binding signal
B1	0.115 KA relative to UGCAUGU
B2	0.0736 KA relative to UGCAUGU
B3	0.0528 KA relative to UGCAUGU
B4	0.0937 KA relative to UGCAUGU
B5	0.24 KA relative to UGCAUGU
B6	0.0704 KA relative to UGCAUGU
B7	0.0874 KA relative to UGCAUGU
B8	0.118 KA relative to UGCAUGU
B9	0.284 KA relative to UGCAUGU
B10	0.0741 KA relative to UGCAUGU
B11	0.112 KA relative to UGCAUGU
B12	0.0973 KA relative to UGCAUGU
B13	0.0602 KA relative to UGCAUGU
B14	0.0867 KA relative to UGCAUGU
B15	0.0906 KA relative to UGCAUGU
B16	0.578 KA relative to UGCAUGU
B17	0.127 KA relative to UGCAUGU
B18	0.0823 KA relative to UGCAUGU
B19	0.0509 KA relative to UGCAUGU
B20	0.105 KA relative to UGCAUGU
